This passage reports binding results from paper PMC9030733.

The chains behind the UniProt entries cited, without tags or fusion partners. Residues count along the entry.
UniProt Q62151, residues 23-340: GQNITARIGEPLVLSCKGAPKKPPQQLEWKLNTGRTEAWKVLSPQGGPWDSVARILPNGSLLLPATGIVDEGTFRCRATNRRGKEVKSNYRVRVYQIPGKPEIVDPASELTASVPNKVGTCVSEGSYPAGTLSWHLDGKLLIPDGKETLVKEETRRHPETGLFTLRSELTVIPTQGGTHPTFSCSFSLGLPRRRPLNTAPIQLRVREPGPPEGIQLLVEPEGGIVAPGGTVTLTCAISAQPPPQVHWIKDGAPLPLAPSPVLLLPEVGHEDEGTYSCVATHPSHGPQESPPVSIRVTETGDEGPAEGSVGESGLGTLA

In one experiment the target is sDectin-1-Flag (mouse) (UniProt Q6QLQ4). The experiment is described as follows: co-IP; Fc fusion protein (bait) and Flag-tagged protein (prey) overexpressed together in AT3 cells; lysate (50 mM Tris HCl pH 8.0, 300 mM NaCl, 1 mM MgCl2, 10 mM KCl, 0.5% NP-40, 10% glycerol) on protein A-Sepharose 2 h, 4 washes; Western blot; for self-association the Fc-fused and the Flag-fused copy of the same receptor. In general terms: Immunoblotting shows a protein as a band on a membrane.

Experiment [1] deals with T1, sClec4e-Fc (mouse) (UniProt Q9R0Q8).
T1 sequence: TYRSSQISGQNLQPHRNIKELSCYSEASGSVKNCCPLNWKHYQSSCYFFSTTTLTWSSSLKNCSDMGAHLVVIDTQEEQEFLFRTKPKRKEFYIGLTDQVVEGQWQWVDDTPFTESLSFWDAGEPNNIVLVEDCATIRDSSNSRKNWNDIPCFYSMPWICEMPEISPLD
The experiment is described as above.

For another experiment, the target named is T2, sNKG2D-Fc (mouse) (UniProt O54709).
T2 sequence: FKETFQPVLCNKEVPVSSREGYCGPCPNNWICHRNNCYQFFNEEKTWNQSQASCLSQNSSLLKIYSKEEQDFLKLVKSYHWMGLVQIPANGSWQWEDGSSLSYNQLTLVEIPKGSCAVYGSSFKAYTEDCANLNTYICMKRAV
The experiment is described as above.

The target in the next experiment is sNKG2D-Flag (mouse) (UniProt O54709). The description is as above.
The target of experiment [2] is T3, sDectin-1-Fc (mouse) (UniProt Q6QLQ4).
T3 sequence: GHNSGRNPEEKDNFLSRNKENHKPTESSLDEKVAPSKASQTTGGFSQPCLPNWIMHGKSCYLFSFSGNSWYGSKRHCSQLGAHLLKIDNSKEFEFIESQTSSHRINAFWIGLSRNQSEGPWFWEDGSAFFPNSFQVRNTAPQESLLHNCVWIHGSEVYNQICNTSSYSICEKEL
The experiment in a line: co-IP; AT3 cells overexpressing tet-inducible Fc fusion protein (1 ug/mL doxycycline); lysate on protein A-Sepharose; Western blot with antibodies to endogenous Nidogen-1 or Hspg2.

Experiment [3] has as its target T1, sClec4e-Fc (mouse). Described as above.
Experiment [4] concerns the target sRAGE-Fc (UniProt Q62151). The experiment is described as follows: co-IP; LLC cells overexpressing tet-inducible sRAGE-Fc (1 ug/mL doxycycline); lysate on protein A-Sepharose; Western blot for endogenous Nidogen-1 and Hspg2.
Experiment [5] concerns the target T3, sDectin-1-Fc (mouse). The experiment is described as follows: co-IP; Fc fusion protein (bait) and Flag-tagged protein (prey) overexpressed together in AT3 cells; lysate (50 mM Tris HCl pH 8.0, 300 mM NaCl, 1 mM MgCl2, 10 mM KCl, 0.5% NP-40, 10% glycerol) on protein A-Sepharose 2 h, 4 washes; Western blot; for self-association the Fc-fused and the Flag-fused copy of the same receptor.

The target in experiment [6] is sRAGE-Fc (UniProt Q62151). The experiment is described as above.

Results are given in words; binding and its absence hold for the method and conditions named. In cells and extracts the contact can be indirect. Some entries that bind do so weakly or less than the wild type. For some assays here: Sequences can lack the tags named with a protein.

B1: sDectin-1-Flag (domain or fragment, UniProt Q6QLQ4 71-244)
chain: GHNSGRNPEEKDNFLSRNKENHKPTESSLDEKVAPSKASQTTGGFSQPCLPNWIMHGKSCYLFSFSGNSWYGSKRHCSQLGAHLLKIDNSKEFEFIESQTSSHRINAFWIGLSRNQSEGPWFWEDGSAFFPNSFQVRNTAPQESLLHNCVWIHGSEVYNQICNTSSYSICEKEL
Take B1: the binding result is “no binding” in the experiment with sDectin-1-Flag (mouse), “binds” in the experiment with sClec4e-Fc (mouse) [1] and “no binding” with sNKG2D-Fc (mouse).

B2: sNKG2D-Flag (domain or fragment, UniProt O54709-1 90-232)
chain: FKETFQPVLCNKEVPVSSREGYCGPCPNNWICHRNNCYQFFNEEKTWNQSQASCLSQNSSLLKIYSKEEQDFLKLVKSYHWMGLVQIPANGSWQWEDGSSLSYNQLTLVEIPKGSCAVYGSSFKAYTEDCANLNTYICMKRAV
With B2, the binding entry with sClec4e-Fc (mouse) [1] and with sNKG2D-Flag (mouse) was “binds” in each case.

B3: Nidogen-1 (endogenous) (protein, UniProt P10493 29-1245)
chain: LNRQELFPFGPGQGDLELEAGDDVVSPSLELIGELSFYDRTDITSVYVTTNGIIAMSEPPATEYHPGTFPPSFGSVAPFLADLDTTDGLGNVYYREDLSPFIIQMAAEYVQRGFPEVSFQPTSVVVVTWESVAPYGGPSSSPAEEGKRNTFQAVLASSNSSSYAIFLYPEDGLQFFTTFSKKDESQVPAVVGFSKGLVGFLWKSNGAYNIFANDRESIENLAKSSNAGHQGVWVFEIGSPATAKGVVSADVNLDLDDDGADYEDEDYDLVTSHLGLEDVATPSPSHSPRRGYPDPHNVPRILSPGYEATERPRGVPTERTRSFQLPAERFPQHHPQVIDVDEVEETGVVFSYNTGSQQTCANNRHQCSVHAECRDYATGFCCRCVANYTGNGRQCVAEGSPQRVNGKVKGRIFVGSSQVPVVFENTDLHSYVVMNHGRSYTAISTIPETVGYSLLPLAPIGGIIGWMFAVEQDGFKNGFSITGGEFTRQAEVTFLGHPGKLVLKQQFSGIDEHGHLTISTELEGRVPQIPYGASVHIEPYTELYHYSSSVITSSSTREYTVMEPDQDGAAPSHTHIYQWRQTITFQECAHDDARPALPSTQQLSVDSVFVLYNKEERILRYALSNSIGPVRDGSPDALQNPCYIGTHGCDSNAACRPGPGTQFTCECSIGFRGDGQTCYDIDECSEQPSRCGNHAVCNNLPGTFRCECVEGYHFSDRGTCVAAEDQRPINYCETGLHNCDIPQRAQCIYMGGSSYTCSCLPGFSGDGRACRDVDECQHSRCHPDAFCYNTPGSFTCQCKPGYQGDGFRCMPGEVSKTRCQLEREHILGAAGGADAQRPTLQGMFVPQCDEYGHYVPTQCHHSTGYCWCVDRDGRELEGSRTPPGMRPPCLSTVAPPIHQGPVVPTAVIPLPPGTHLLFAQTGKIERLPLERNTMKKTEAKAFLHIPAKVIIGLAFDCVDKVVYWTDISEPSIGRASLHGGEPTTIIRQDLGSPEGIALDHLGRTIFWTDSQLDRIEVAKMDGTQRRVLFDTGLVNPRGIVTDPVRGNLYWTDWNRDNPKIETSHMDGTNRRILAQDNLGLPNGLTFDAFSSQLCWVDAGTHRAECLNPAQPGRRKVLEGLQYPFAVTSYGKNLYYTDWKTNSVIAMDLAISKEMDTFHPHKQTRLYGITIALSQCPQGHNYCSVNNGGCTHLCLPTPGSRTCRCPDNTLGVDCIERK
Turning to B3, the binding entry in the experiment with sDectin-1-Fc (mouse) [2], with sClec4e-Fc (mouse) [3] and with sRAGE-Fc [4] was “binds” in each case.

B4: Nidogen-1-Flag (protein, UniProt P10493 29-1245)
chain: LNRQELFPFGPGQGDLELEAGDDVVSPSLELIGELSFYDRTDITSVYVTTNGIIAMSEPPATEYHPGTFPPSFGSVAPFLADLDTTDGLGNVYYREDLSPFIIQMAAEYVQRGFPEVSFQPTSVVVVTWESVAPYGGPSSSPAEEGKRNTFQAVLASSNSSSYAIFLYPEDGLQFFTTFSKKDESQVPAVVGFSKGLVGFLWKSNGAYNIFANDRESIENLAKSSNAGHQGVWVFEIGSPATAKGVVSADVNLDLDDDGADYEDEDYDLVTSHLGLEDVATPSPSHSPRRGYPDPHNVPRILSPGYEATERPRGVPTERTRSFQLPAERFPQHHPQVIDVDEVEETGVVFSYNTGSQQTCANNRHQCSVHAECRDYATGFCCRCVANYTGNGRQCVAEGSPQRVNGKVKGRIFVGSSQVPVVFENTDLHSYVVMNHGRSYTAISTIPETVGYSLLPLAPIGGIIGWMFAVEQDGFKNGFSITGGEFTRQAEVTFLGHPGKLVLKQQFSGIDEHGHLTISTELEGRVPQIPYGASVHIEPYTELYHYSSSVITSSSTREYTVMEPDQDGAAPSHTHIYQWRQTITFQECAHDDARPALPSTQQLSVDSVFVLYNKEERILRYALSNSIGPVRDGSPDALQNPCYIGTHGCDSNAACRPGPGTQFTCECSIGFRGDGQTCYDIDECSEQPSRCGNHAVCNNLPGTFRCECVEGYHFSDRGTCVAAEDQRPINYCETGLHNCDIPQRAQCIYMGGSSYTCSCLPGFSGDGRACRDVDECQHSRCHPDAFCYNTPGSFTCQCKPGYQGDGFRCMPGEVSKTRCQLEREHILGAAGGADAQRPTLQGMFVPQCDEYGHYVPTQCHHSTGYCWCVDRDGRELEGSRTPPGMRPPCLSTVAPPIHQGPVVPTAVIPLPPGTHLLFAQTGKIERLPLERNTMKKTEAKAFLHIPAKVIIGLAFDCVDKVVYWTDISEPSIGRASLHGGEPTTIIRQDLGSPEGIALDHLGRTIFWTDSQLDRIEVAKMDGTQRRVLFDTGLVNPRGIVTDPVRGNLYWTDWNRDNPKIETSHMDGTNRRILAQDNLGLPNGLTFDAFSSQLCWVDAGTHRAECLNPAQPGRRKVLEGLQYPFAVTSYGKNLYYTDWKTNSVIAMDLAISKEMDTFHPHKQTRLYGITIALSQCPQGHNYCSVNNGGCTHLCLPTPGSRTCRCPDNTLGVDCIERK
For the molecule B4, the binding result with sDectin-1-Fc (mouse) [5], in the experiment with sRAGE-Fc [6] and with sClec4e-Fc (mouse) [1] was “binds” in each case.
